The source of these data is article PMC4336329 (PLoS ONE, 2015).

Among all 310,000 compounds or so, about 14,000 (4.5%) showed an effect of 50% or more. The effect is printed as a negative number. The list shows a part of the results.
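Note: peak tail current of the secondary pulse compared with the same well before compound.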

The target of the assay is human ether-à-go-go-related gene (hERG) potassium channel (human, UniProt Q12809). Put plainly: primary screen, population patch clamp on CHO cells stably expressing hERG.
Sequence of human ether-à-go-go-related gene (hERG) potassium channel (Q12809 whole entry, looked up): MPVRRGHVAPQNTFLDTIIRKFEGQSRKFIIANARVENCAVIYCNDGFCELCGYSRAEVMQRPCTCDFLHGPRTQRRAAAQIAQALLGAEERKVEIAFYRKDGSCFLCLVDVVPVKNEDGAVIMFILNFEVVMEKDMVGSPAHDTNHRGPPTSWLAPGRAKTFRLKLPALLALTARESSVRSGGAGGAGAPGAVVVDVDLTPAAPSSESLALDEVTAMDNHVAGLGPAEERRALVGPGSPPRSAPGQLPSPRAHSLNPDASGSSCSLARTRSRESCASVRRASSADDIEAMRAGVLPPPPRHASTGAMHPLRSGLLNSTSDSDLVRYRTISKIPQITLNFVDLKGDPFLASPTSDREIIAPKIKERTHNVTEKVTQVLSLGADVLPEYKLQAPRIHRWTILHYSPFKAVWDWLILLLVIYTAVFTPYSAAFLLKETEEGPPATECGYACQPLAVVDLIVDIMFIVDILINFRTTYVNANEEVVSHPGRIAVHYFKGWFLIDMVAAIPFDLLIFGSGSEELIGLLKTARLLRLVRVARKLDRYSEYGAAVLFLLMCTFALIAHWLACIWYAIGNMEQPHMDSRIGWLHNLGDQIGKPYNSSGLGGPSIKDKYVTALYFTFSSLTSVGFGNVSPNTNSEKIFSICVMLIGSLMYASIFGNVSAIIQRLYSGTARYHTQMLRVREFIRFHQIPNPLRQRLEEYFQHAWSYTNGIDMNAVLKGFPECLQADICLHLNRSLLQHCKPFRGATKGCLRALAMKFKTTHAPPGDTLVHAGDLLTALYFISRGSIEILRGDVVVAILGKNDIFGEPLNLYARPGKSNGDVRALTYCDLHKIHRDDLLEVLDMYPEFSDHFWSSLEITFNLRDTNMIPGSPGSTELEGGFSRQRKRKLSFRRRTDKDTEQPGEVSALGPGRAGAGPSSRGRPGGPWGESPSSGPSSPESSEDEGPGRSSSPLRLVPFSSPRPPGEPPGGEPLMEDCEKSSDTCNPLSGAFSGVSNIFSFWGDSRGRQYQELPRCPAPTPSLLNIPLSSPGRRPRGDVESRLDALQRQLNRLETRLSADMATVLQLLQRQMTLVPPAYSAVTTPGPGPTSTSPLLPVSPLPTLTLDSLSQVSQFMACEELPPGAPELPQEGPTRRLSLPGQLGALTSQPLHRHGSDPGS
Regarding `O=C(NC(=O)c1cccc(Cl)c1)OC[C@@H]1CCCN2CCCCC12` (stereo partly shown), the “hERG current change (%, negative = inhibition) at 10uM” value is given as -60.9%. The same measure for `C/C(=N\N(c1ccccc1)c1ccccc1)c1ccco1`: -17.3%; for `Cc1ccc(C)c(N2CCN(CCCNC(=O)CCn3c(=O)c4cccn4c4cccnc43)CC2)c1`: -70%. Then `Cn1ncc(N=Cc2ccc([N+](=O)[O-])cc2)c1C(=O)N1CCOCC1`, with -12.3%.

With `CCOc1ccc(C(C)=O)cc1CSc1nnc(N)s1`, the “hERG current change (%, negative = inhibition) at 10uM” value stood at 11.2%.

For `Cc1cccc(OCCOc2ccc(/C=N/NC(=O)Cc3nnc(N)s3)cc2)c1`, the “hERG current change (%, negative = inhibition) at 10uM” value came out at 11.7%. Then `Cc1ccsc1CN(C)Cc1nc(C2CC2)no1`, with -1.13%; and `Br.COc1ccc2c3c1O[C@H]1C[C@@H](O)C=C[C@@]31CCN(C)C2`, with 2.76%; and `COc1cccc(N/C=C(\C#N)c2ccc(OCCCF)cc2)c1`, with 8.19%. The same measure for `Cn1nc(C(F)(F)F)cc1C(=O)NC1CCCCCC1`: 6.46%. The same measure for `CC1(C)Cc2c(c(=S)nc(-c3ccccc3)n2Cc2cccnc2)CO1`: 0.687%. Take `CCCOc1ccc(CC(=O)NNC(=S)Nc2ccccc2)cc1Br`: the “hERG current change (%, negative = inhibition) at 10uM” value came out at 15.2%. `CC(=O)c1sc2nc(-c3cccs3)ccc2c1N`: the “hERG current change (%, negative = inhibition) at 10uM” value is listed as 10.5%. The same measure for `COc1ccc(CC(NC(C)=O)C(=O)NC2CCN(C(=O)Nc3ccccc3C)CC2)cc1OC` (stereo not shown): 4.13%.

Turning to `CCSc1nc(-c2ccccc2)cc(=O)[nH]1`, the “hERG current change (%, negative = inhibition) at 10uM” value was -2.62%. With `COc1ccccc1CNCCc1ccc(F)cc1.O=C(O)C(=O)O`, the “hERG current change (%, negative = inhibition) at 10uM” value is -33.8%. Regarding `CC1(N(O)C=C2C=CC(=O)C=C2)CCCCC1=O` (stereo not shown), the “hERG current change (%, negative = inhibition) at 10uM” value worked out at 35.1%. Then `CCOC(=O)c1sc(=S)n(-c2ccccc2)c1N`, with 0.147%.

Take `COc1ccc(CN2CCNC(=O)C2CC(=O)NC2CCOCC2)c(F)c1` (stereo not shown): the “hERG current change (%, negative = inhibition) at 10uM” value is listed as -25.4%. `Cc1cc(=O)n(-c2ccc(O)cc2)[nH]1`: the “hERG current change (%, negative = inhibition) at 10uM” value was 3.97%. Then `CCC(C)(NC(=O)Cc1c[nH]c2ccccc12)C(=O)NC1CCCCC1` (stereo not shown), with 2.32%; and `COc1ccccc1C1CC(c2ccco2)=NN1S(C)(=O)=O` (stereo not shown), with 7.02%; and `CN(Cc1ccc(F)cc1Cl)S(=O)(=O)c1cccs1`, with -62%. On to `Cc1nn(-c2ccccc2[N+](=O)[O-])c(=O)c2ccccc12`, for which the “hERG current change (%, negative = inhibition) at 10uM” value is listed as 9.2%. Then `O=C(Nc1ncccc1O)c1ccc2c(c1)OCO2`, with 3.08%; and `O=C1NC(=O)N(CCNc2ncc(C(F)(F)F)cc2Cl)C(=O)C1/C=N/OCc1c(F)cccc1Cl` (stereo not shown), with -1.19%. As to `Br.Cc1ccc(C)c(C(=O)CN2C3=NCCCN3c3ccccc32)c1`, the “hERG current change (%, negative = inhibition) at 10uM” value was -69.2%. Then `Cc1ccc(S(=O)(=O)/N=C(\Nc2cccc(C)c2)Nc2nc(C)cc(C)n2)cc1`, with 17.1%. The same measure for `Cc1cc2nnc(SCC(=O)Nc3ccc(Cl)cc3)n2c(N)n1`: -6.76%.

As for `CCOCC(O)CNC(=O)c1ccc2nc(Cc3ccc(OC)c(OC)c3)oc2c1` (stereo not shown), the “hERG current change (%, negative = inhibition) at 10uM” value is 21.8%. Then `CN(C)C(=O)COC(=O)c1ccccc1OCC(=O)Nc1ccc(SC(F)F)cc1`, with -51.8%; and `NNC(=O)C1COc2cc3ccccc3cc2O1` (stereo not shown), with 7.85%. The same measure for `CCOC(=O)c1ccc(NC(=S)NN)cc1`: 20%; for `Cc1cc(Cn2nc(-c3ccccc3)cc2C(=O)NCc2cccs2)on1`: -19.7%; for `CCc1nn(CC(=O)NCCCN(C)C2CCCCC2)c(=O)c2cc3occc3n12`: -1.82%. The same measure for `COc1c(CC=C(C)C)c(O)cc2oc(=O)c3c4ccc(O)cc4oc3c12`: 4.94%; for `CCNc1ccccc(-c2ccc3ccccc3n2)c1=O`: -26.4%; for `Cn1c(N)c(C(=O)COC(=O)CCC(=O)c2ccc(F)cc2)c(=O)n(C)c1=O`: -25.4%. As to `CCCC(=O)N(Cc1cc(=O)[nH]c2ccccc12)c1ccccc1OC`, the “hERG current change (%, negative = inhibition) at 10uM” value is -10.9%. For the compound `COc1ccc(-n2c(=O)c3c4c(sc3n(CC(=O)Nc3cc(C)[nH]n3)c2=O)CCC4)c(OC)c1`, the “hERG current change (%, negative = inhibition) at 10uM” value was -6.64%. The same measure for `O=C(NCc1nnnn1-c1ccc(F)c(F)c1)c1ccc2ccccc2c1`: -38.8%; for `O=C(Nc1cccc2ccccc12)N1CCC2(CC1)OCCO2`: 15%; for `COc1ccc2oc(C(=O)OCC(=O)N3CC(C)OC(C)C3)c(C)c2c1` (stereo not shown): -0.998%. Then `CSc1nc(C=Nc2ccccc2Cl)c(O)n1Cc1cccc(Cl)c1`, with 12.4%.

With `COc1ccc(/C(C)=N/Nc2cc(C(F)(F)F)ccc2Cl)c(OC)c1`, the “hERG current change (%, negative = inhibition) at 10uM” value is recorded as 4.1%. The same measure for `O=c1c2c3c(sc2nc2n1CCCC2)CCC3`: -9.34%. Turning to `CC(C)Cc1nccs1`, the “hERG current change (%, negative = inhibition) at 10uM” value is on record as 16.3%. The same measure for `COc1ccccc1C(=O)N1C(CC(=O)Nc2ccccc2C)C(=O)NC2CCCCC21` (stereo not shown): 7.1%; for `Cc1nc2nc(SCC(=O)NCCN3CCOCC3)nn2c(C)c1Cc1ccccc1`: 6.64%; for `CCC(CC)C(=O)c1c[nH]c(C(=O)NCC2CCCO2)c1` (stereo not shown): 4.28%. Then `CC(C)c1cccc(OCCN2CCCC2)c1`, with 5.18%; and `O=C(COc1ccccc1F)Nc1cc(S(=O)(=O)N2CCOCC2)ccc1N1CCOCC1`, with -13.7%; and `COc1ccc(N2CCN(C(=O)COC(=O)c3ccc(CSC)o3)CC2)cc1`, with -24.6%. Then `CCCCNS(=O)(=O)c1ccc(NC(=O)C2c3ccccc3Oc3ccccc32)cc1`, with -2.69%; and `CC(=O)c1cc(C)ccc1OC(=O)CN1C(=O)c2ccccc2C1=O`, with 22.8%; and `O=C(O)C(=O)O.O=C(c1ccccc1F)N1CCN(C2CCC(c3ccccc3)CC2)CC1` (stereo not shown), with -60.5%. With `CNC(=O)COc1coc(CN2CCN(Cc3ccccc3)CC2)cc1=O`, the “hERG current change (%, negative = inhibition) at 10uM” value was found to be 1.83%.

Take `CC(C)(Oc1ccc(Cl)cc1)C(=O)NC1CCCCC1`: the “hERG current change (%, negative = inhibition) at 10uM” value turned out to be 0.43%.
